Paper PMC5196188
No constants are given. Whether binding was seen depends on the method and setting. For part of these data: In cells and extracts the contact can be indirect. Some results given as binding are weak or reduced against the parent protein; the word gives no strength. Values belong to the substance of their own block, whether it stands above or below them.

Sequences of proteins named here, by UniProt entry; tags and fusion partners are left off. A change or cut given only in a name is not applied to a line headed by its entry. Residues count along the entry.
UniProt Q6NSJ2: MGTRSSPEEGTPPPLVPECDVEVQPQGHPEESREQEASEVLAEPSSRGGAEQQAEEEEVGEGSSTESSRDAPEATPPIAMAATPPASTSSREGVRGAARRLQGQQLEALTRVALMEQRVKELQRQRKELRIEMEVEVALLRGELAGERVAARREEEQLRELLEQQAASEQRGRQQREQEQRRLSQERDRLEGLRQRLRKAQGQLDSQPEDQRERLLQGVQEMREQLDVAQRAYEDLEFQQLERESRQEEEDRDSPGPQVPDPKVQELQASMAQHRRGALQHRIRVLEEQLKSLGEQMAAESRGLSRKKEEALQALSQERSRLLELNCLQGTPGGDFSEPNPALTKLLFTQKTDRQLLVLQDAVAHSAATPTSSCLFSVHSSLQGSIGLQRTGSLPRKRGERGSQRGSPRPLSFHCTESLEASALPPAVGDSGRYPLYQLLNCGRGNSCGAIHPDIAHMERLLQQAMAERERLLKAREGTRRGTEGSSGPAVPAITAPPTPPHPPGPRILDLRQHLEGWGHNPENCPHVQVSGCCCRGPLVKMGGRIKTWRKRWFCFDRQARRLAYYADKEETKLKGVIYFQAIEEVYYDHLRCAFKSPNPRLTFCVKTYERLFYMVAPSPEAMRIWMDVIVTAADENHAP
UniProt Q00987: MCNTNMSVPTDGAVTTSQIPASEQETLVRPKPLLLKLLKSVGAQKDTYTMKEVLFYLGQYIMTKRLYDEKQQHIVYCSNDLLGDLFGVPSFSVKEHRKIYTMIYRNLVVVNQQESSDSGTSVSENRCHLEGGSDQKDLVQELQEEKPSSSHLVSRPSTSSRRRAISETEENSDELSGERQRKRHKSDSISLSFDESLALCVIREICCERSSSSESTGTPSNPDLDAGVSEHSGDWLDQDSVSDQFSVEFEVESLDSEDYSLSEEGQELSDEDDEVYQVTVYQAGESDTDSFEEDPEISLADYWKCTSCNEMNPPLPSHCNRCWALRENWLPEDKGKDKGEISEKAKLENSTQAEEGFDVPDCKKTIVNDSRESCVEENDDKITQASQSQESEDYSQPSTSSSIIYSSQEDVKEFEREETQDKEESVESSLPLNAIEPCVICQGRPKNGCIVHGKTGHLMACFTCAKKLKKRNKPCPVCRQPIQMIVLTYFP
GST-MDM2 aa 1-301: residues 1-301 of Q00987
GST-MDM2 aa 1-150: residues 1-150 of Q00987
GST-MDM2 aa 284-491: residues 284-491 of Q00987

Experiments:
[1] = molecular target: PHLDB3-Flag (pleckstrin homology-like domain, family B, member 3) (human) (UniProt Q6NSJ2); test: co-IP; HEK293 cells transfected with PHLDB3-Flag and/or HA-MDM2; reverse co-IPs; lysis buffer 50 mM Tris/HCl pH 7.5, 0.5% NP-40, 1 mM EDTA, 150 mM NaCl; 4 °C
GST-MDM2 = GST-MDM2 (UniProt Q00987); test: pull-down; GST-MDM2 or fragments (500 ng) on glutathione-Sepharose 4B beads, purified His-PHLDB3 in solution; 4 °C for 4 h (methods) or one hour at room temperature; washes in 50 mM Tris/HCl pH 8.0, 0.5% NP-40, 1 mM EDTA, 150 mM NaCl, 10% glycerol; immunoblot with anti-PHLDB3; both …
GST-MDM2 aa 1-150 = GST-MDM2 aa 1-150 (UniProt Q00987); test: as above
GST-MDM2 aa 1-301 = GST-MDM2 aa 1-301 (UniProt Q00987); test: as above
GST-MDM2 aa 284-491 = GST-MDM2 aa 284-491 (UniProt Q00987); test: as above
[2] = molecular target: HA-MDM2 (mouse double minute 2 homolog) (UniProt Q00987); test: co-IP; HEK293 cells transfected with PHLDB3-Flag and/or HA-MDM2; reverse co-IPs; lysis buffer 50 mM Tris/HCl pH 7.5, 0.5% NP-40, 1 mM EDTA, 150 mM NaCl; 4 °C
C464A MDM2 mutant = C464A MDM2 mutant (UniProt Q00987); test: co-IP; Supplementary Fig. 3; MDMX-MDM2 complexes with rising amounts of ectopic PHLDB3 (panel a); C464A MDM2 with PHLDB3 (b) and MDMX (c); cells and antibodies not shown; method of panels b, c taken from panel a
[3] = molecular target: MDM2 (Supplementary Fig. 3) (UniProt Q00987); test: as above
[4] = molecular target: endogenous MDM2 (human (endogenous in HCT116)) (UniProt Q00987); test: co-IP; endogenous proteins; HCT116 p53+/+ cells treated with Doxorubicin for 16 h and MG132 for 6 h; IgG as control

- binding [1]: binds
Substance: HA-MDM2 (mouse double minute 2 homolog) (from UniProt Q00987 1-491)

- binding (GST-MDM2): binds
- binding (GST-MDM2 aa 1-150): no binding
- binding (GST-MDM2 aa 1-301): no binding
- binding (GST-MDM2 aa 284-491): binds
Substance: His-PHLDB3 (from UniProt Q6NSJ2 1-640)

- binding [2]: binds
Substance: PHLDB3-Flag (pleckstrin homology-like domain, family B, member 3) (from UniProt Q6NSJ2 1-640)

- binding (C464A MDM2 mutant): binds
- binding [3]: binds
Substance: ectopic PHLDB3 (Supplementary Fig. 3) (from UniProt Q6NSJ2 1-640)

- binding [4]: binds
Substance: endogenous PHLDB3 (from UniProt Q6NSJ2 1-640)
